Screen size: about 150,000 compounds; about 540 (0.36%) showed an effect of 50% or more. This is one part of the list.
test system: Plasmodium falciparum; assay: Primary screen in NF54 nanoGlo assay, in single point, at 2uM, 72h; a lower Z score goes with more inhibition; format: functional, Erythrocyte; conditions: timepoint 72 hour

Structure (SMILES)	% Inhibition [%]	Z score
O=C(NC1CC2CCC1C2)c1cc2n(n1)CCN(Cc1c(F)cccc1Cl)C2=O (stereo unspecified)	-2	0.24
O=C1NCCN(Cc2ccccc2OC2CCCC2)[C@H]1c1ccc(F)cc1	-6	1.06
COc1cccc(C(=O)NC(C)C2CN(C)CCN2C)c1O (stereo unspecified)	-19	2.75
COCCN(CCOC)C(=O)NC(=O)c1ccc(Cl)cc1	4	-0.6
N#Cc1c(NC(=O)CN2CCN(c3ccccc3F)CC2)sc2c1CCCC2	-15	1.71
CN=C(NC(=O)Nc1c(C)cccc1C)NC(=O)Nc1c(C)cccc1C	-12	2.31
CCN1C[C@@H](NC(=O)c2coc(COc3ccc4ncccc4c3)n2)CC1=O	-9	1.17
COc1ccc(CN2CCN3C(=O)N(Cc4ccc(C)cc4)C[C@H]3C2)cn1	14	-2.25
COc1ccc2[nH]c(=O)c(CN3CC(n4cccn4)C3)cc2c1	-9	1.43
CC[C@H](OC1CCCCC1)C(=O)Nc1ccccc1-c1noc(C)n1	-11	0.94
CC[C@@H]1Oc2ccc(NC(=O)Cc3cccc(OC)c3)cc2CN(Cc2ccc3c(c2)OCO3)C1=O	-7	0.8
CC(C)CNC(=O)c1cccc(CN2CCC[C@](CO)(c3ccccc3)C2)c1	-12	2.29
OC(CN1CCCC1c1nc2ccccc2s1)c1ccccc1 (stereo unspecified)	-15	2.29
CN1C(=O)[C@@H]2CCCCN2c2ccc(C(=O)O)cc21	-5	0.63
C=CCC(CC=C)C(=O)Nc1cccc(Cl)c1C(N)=O	2	-0.19
CC(COC1CCOC1)NC(=O)C1CCC2CCCCC2C1 (stereo unspecified)	-14	2.17
O=C(Nc1ccc([C@@H](O)c2cccs2)cc1)C1CCOCC1	2	-0.37
Cc1cc(C)n(Cc2ccc(C(=O)N3CCCCCC3)o2)n1	30	-3.99
CC(C)c1ccc(NC(=O)[C@H]2C[C@H]3CCCN3[C@@]23C(=O)Nc2ccccc23)cc1	-12	1.18
O=C(COc1ccccc1)NC1CCC(Oc2cnccn2)CC1 (stereo unspecified)	0	-0.02
O=C(c1ccccc1)c1ccc2c(c1)C(=O)N(c1ccc(Cl)cc1Cl)C2=O	-9	1.07

Structure (SMILES)	% Inhibition [%]	Z score
O=C(c1ccsc1)N1CCC2(CC[C@@H]2N2CCOCC2)CC1	-20	2.49
O=C(O)[C@@H](c1ccccc1F)N1CCC(c2nc(-c3ccccc3)n[nH]2)CC1	-3	0.34
OC[C@]12CN(Cc3ccc[nH]3)CC[C@H]1CN(Cc1ccccc1)C2	3	-0.41
CCOC(=O)c1nc([C@@H](C)Cn2cc(C)cn2)no1	-21	2.46
O=C(c1ccc(Cl)c(S(=O)(=O)N2CCCCCC2)c1)N1CCOCC1	-8	1.2
Cc1ccsc1[C@H]1CCN(Cc2c(CO)cnc(C)c2O)C[C@@H]1O	1	-0.24
C[C@@H]1CCC[C@H](C)N1C(=O)CCc1nnc(Cc2cccc(C(F)(F)F)c2)o1	-14	1.24
Cc1nnc([C@@H](NC(=O)Nc2ccccc2F)C(C)C)[nH]1	39	-5.19
CC(C)(C)C(=O)NCC[C@H](O)c1cccc(Cl)c1	-8	1
Cc1ncsc1-c1nc(CS(=O)(=O)C[C@H]2CCCO2)no1	-6	1.15
CC(=O)N1CCc2c(N[C@@H]3C=Cc4ccccc4OC3)cccc21	-6	1.23
O=C(c1ccc(-c2cnn(CCO)c2)cc1)N1CCCCCC1	-7	0.83
O=C(NCC(F)F)c1cn2cc(-c3ccccc3Cl)n(CC3CC3)c(=O)c2n1	1	-0.11
CC(C)Nc1oc(-c2cccnc2)nc1C#N	-13	1.69
FC(F)(F)c1cccc2c1OCCN2Cc1cn(C[C@H]2CCOC2)nn1	-1	0.12
CCc1cc(N2CCc3c(cccc3C(N)=O)C2)nc(CC)n1	-12	1.5
O=C(O)C1(C(=O)Nc2ccc(CN3CCOCC3)cc2)CCCCCC1	3	-0.6
CN(Cc1nc(-c2ccccn2)no1)C1CCN(C(=O)c2cccs2)CC1	-6	1.18
CC1CC1C(=O)NCC(NC(=O)C1CC1C)C1CC1 (stereo unspecified)	-5	1
CNC(=O)c1ccc2n1CCN(C(=O)OC(C)(C)C)[C@H]2C	-11	1.07
CC(=O)N(CCN1CCOCC1)[C@H]1CCN(C(=O)Nc2ccccc2C)C1	-11	1.48

Structure (SMILES)	% Inhibition [%]	Z score
CN(C[C@H]1CCn2ccnc2C1)C(=O)c1cc2ccc(Cl)cc2[nH]1	-38	4.42
Cc1cccc2nc(CCNC(=O)N3CC(Cc4ccoc4)C3)cn12	-6	0.9
CCc1nc(C)c(-c2c(-c3ccccc3)ncn2[C@H]2CCCCNC2=O)[nH]1	-3	0.43
COc1ccc(OC)c(-c2cc(C(=O)NCC#CCOc3ccc4c(c3)OCO4)n(C)n2)c1	7	-0.87
Cc1cn2cc(C(=O)N[C@H]3CCCOC3)ccc2n1	-8	1.17
CCc1noc(C)c1CS(=O)(=O)[C@H]1CCOC1	-8	1.2
CCC1CCN(S(=O)(=O)NCc2nc(C(N)=O)co2)CC1	2	-0.38
CC(C)(C)N(CCS(C)(=O)=O)C(=O)c1ccncc1Cl	-8	0.69
CCCn1ccnc1CN1C[C@H]2C[C@H](O)[C@H](O)C[C@H]2C1	-5	0.67
CCn1cnc2c1CCN(C(=O)Nc1cc(CN(C)C)ccn1)C2	-6	1.17
COCCN(Cc1scnc1C)C(=O)Cn1ccnc1C	-14	1.82
O=C(C[C@@H]1COC2(C1)CN(S(=O)(=O)c1cccc(Cl)c1)C2)NCC1CC1	-1	0.12
CC(Cc1ccco1)NC(=O)N(C)C1CCS(=O)(=O)C1 (stereo unspecified)	-6	0.95
CC1CC(C)CN(C(=O)c2cc(NC(=O)c3ccccc3)n(C)n2)C1 (stereo unspecified)	33	-4.72
CNC(=O)c1ccc(CN2C[C@H](NS(=O)(=O)N(C)C)[C@@H](C(C)C)C2)o1	-23	2.06
Cc1cccc(NCc2ccnc(OCC(F)F)c2)n1	0	0.07
CO[C@@H](C)CS(=O)(=O)Nc1cccc(-n2cc(C)[nH]c2=O)c1	-10	0.87
CC(C)(NC(=O)CCCc1ccccn1)c1cc(C(F)F)on1	4	-0.74
O=C(Nc1cccnc1)c1c(-c2ccccc2)c(-c2ccccc2)n[nH]c1=O	-2	0.37
COc1cccc(-n2c(=O)n(C3CCCC3)c(=O)c3c2ncn3Cc2ccc(C(C)(C)C)cc2)c1	-5	0.63
Cn1cc(CN2CCCC[C@@H]2CCc2ccccc2)cn1	-2	0.2

Structure (SMILES)	% Inhibition [%]	Z score
CCS(=O)(=O)c1ccc(N2CCC(Cn3cncn3)CC2)cc1	-1	0.13
O=C(O)c1csc(-n2nc(-c3ccc(Br)cc3)cc2C(F)(F)C(F)F)n1	35	-3.94
COc1cccc(C(=O)N2[C@H](C(=O)NCc3ccccc3)COC23CCN(C(=O)c2ccccc2F)CC3)c1	-3	0.51
COc1cccc(NC(=O)c2ncoc2-c2ccco2)c1	-14	1.4
Cc1ccc(NC(=O)COc2ccc([C@H]3Nc4ccccc4S(=O)(=O)N3Cc3ccccc3)cc2)cc1	35	-3.98
COc1ccc(CN(Cc2ccco2)C(=O)c2ccccc2OC)cc1OS(=O)(=O)c1ccc(F)cc1	-12	1.28
O=C(Cc1cccs1)N1CCN(C(=O)c2ccccc2)CC1	-1	0.14
Cc1nn(-c2ncc(C(F)(F)F)cc2Cl)c(=O)n1-c1cccc(C(F)(F)F)c1	-1	0.11
CC1(C)OC[C@H](CNC(=O)Nc2nncs2)O1	-32	3.71
COc1ccc(N2CCC(C(=O)Nc3cccc(NC(C)=O)c3)CC2)nn1	-5	0.63
CC(C)N1CCC[C@H](N2CCS(=O)(=O)CC2)C1=O	10	-1.17
CCC(C)(C)C(=O)Nc1ccc(Cl)cn1	-2	0.21
CC(C)(C)OC(=O)N1CCC2(CC(O)c3cc(OCc4ccccc4)ccc3O2)C1 (stereo unspecified)	-8	1.05
Cc1oc(-c2ccccc2)c(C(=O)N[C@H]2CCS(=O)(=O)C2)c1C	2	-0.23
Cc1ccc(CN2CCC(N3C(=O)C4CCCN4C3=O)C2=O)cc1 (stereo unspecified)	-10	1.32
CC(C)c1nnc(NC(=O)c2cccc(Nc3cnccn3)c2)s1	11	-1.72
O=C(NCc1ccccc1Br)c1cncn1-c1cccc(-c2ccccc2C(F)(F)F)c1	-11	1.65
C[C@H](O)c1nc2cc(NC(=O)CN3CCCCCC3)ccc2[nH]1	12	-1.6
O=C([C@H]1CC12CCN(Cc1cccc3c1OCO3)CC2)N1CCN(C/C=C/c2ccccc2)CC1	-10	1.31
COCCc1ncc(-c2cc(C(=O)N3CCCCC3)c3ccc(C)c(C)c3n2)cn1	5	-0.64
